Source: the RNAGym collection of RNA variant scans (doi:10.7554/elife.90254)
Read counts are not given, so values of variants with three or more changes are uncertain.

B1: LINE1-full (parent)
chain: UACGUAGGUGGUUUUCCCCUGAUAGUGCUAAGGGGGCCUGGAAGUUUGGACUGGGCAGAGCUCAACACAGCGUGGCAAAGUGGCUGUGGCUAGACUGCCUCUCUGGAUUCCUCGUCACUCAGCAGGGCAUCUCUGAGAGAAAUGCC

Variants of: B1
Assay: self-cleavage, relative activity (ratio to wild type); higher = more cleavage; in vitro, sequencing; the parent is a self-cleaving ribozyme

Variant | self-cleavage
UACGUAGGUGGUUCUCCCCUGAUAGUGCUAAGGGGGCCUGGAAGUUUGGACUGGGCAGAGCUCAGCACAGCGUGGCAAAGAGGCUGUGGCUAGACUGCCUCUCUGGAUUCCUCGUCACUCAGCAGGGCAUCUCUGAGAGAAGUGCC | 0.47
UACGUAGGUGGUUCUCCCCUGAUAGUGCUAAGGGGGCCUGGAAGUUUGGACUGGGCAGAGCUCAACUCAGCGUGGCAAAGUGGCUGUGGCUAGACUGCCUCUCUGGAUUCCUCGUCACUCAGCAGGGCAUUUCUGAGAGAAAUGCC | 0.18
UACGUAGGUGGUUCUCCCCUGAUAGUGCUAAGGGGGCCUGGAAGUUUGGACUGGGCAGAGCUCAACACUGCGUGGCAAAGUGGCUGUGGCUAGACCGCCUCUCUGGAUUCCUCGUCACUCAGCAGGGCAUCUCUGAGAGAAAUGCC | 0.09
UACGUAGGUGGUUCUCCCCUGAUAGUGCUAAGGGGGCCUGGAAGUUUGGACUGGGCAGAGCUCAACACAGCGUGGCAAGGUGGCUGUGGCUAGACUGCCUCUCUGGAUUCCUCGUCACUCAGCAUGGCAUCUCUGAGAGGAAUGCC | 0.63
UACGUAGGUGGUUCUCCCCUGAUAGUGCUAAGGGGGCCUGGAAGUUUGGACUGGGCAGAGCUCAACACGGCGUGGCAAAGGGGCUGUGGCUAGCCUGCCUCUCUGGAUUCCUCGUCACUCAGCAGGGCAUCUCUGAGAGAAAUGCC | 0.44
UACGUAGGUGGUUCUCCCCUGAUAGUGCUAAGGGGGCCUGGAAGUUUGGACUGGGCAGAGCUCAACACAGCGUGGCGAAGUGGCUGUGGCUAGACUGUCUCUCUGGAUUCCUCGUCACUCAGCAGGGCAUCUCUGAGGGAAAUGCC | 1.1
UACGUAGGUGGUUCUCCCCUGAUAGUGCUAAGGGGGCCUGGAAGUUUGGACUGGGCAGAGCUCAACGCAGCGUGGCAAAGUGGCUGUGGCUAGACUGCCUCUCUGGAUUCCUCGUCACUCAGCAGGGCUUCUCUGAGAGGAAUGCC | 0.72
UACGUAGGUGGUUCUCCCCUGAUAGUGCUAAGGGGGCCUGGAAGUUUGGACUGGGCAGAGCUCAACACAGCGUGGCGAAGUGGCUGUGGCUAGACUGCCUCUCCGGAUUCCUCGUCACUCAGCAGGGCAUCUCUGAGAGAAAUGCC | 1.72
UACGUAGGUGGUUCUCCCCUGAUAGUGCUAAGGGGGCCUGGAAGUUUGGACUGGGCAGAGCUCAACACAGCGUGGCGAAGUGGCUGUGGCUAGACUGCGUCUCUGGAUUCCUCGCCACUCCGCAGGGCAUCUCUGAGAGAAAUGCC | 0.92
UACGUAGGUGGUUCUCCCCUGAUAGUGCUAAGGGGGCCUGGAAGUUUGGACUGGGCAGAGCUCAACACAGCGUGGCAAUGUGGCUGUGGCCAGACUGCCUCUCUGGAUCCCUCGUCACUCAGCAGGGCAUCUCUGAGAGAAAUGCC | 1.25
UACGUAGGUGGUUCUCCCCUGAUAGUGCUAAGGGGGCCUGGAAGUUUGGACUGGGCAGAGCUCAACACAGCGUGGCAAAGUGGCUGUGGCUAGGCUGCCUCUCUGGAUUCCUCGUCACUCAGCAGGGCAUCUCUGAGGGAAAUGCC | 0.61
UACGUAGGUGGUUCUCCCCUGAUAGUGCUAAGGGGGCCUGGAAGUUUGGACUGGGCAGAGCUCAACACAGCGUGGCAAAGUGGCUGUGGCUAGUCUGCCUCUCUGGAUUCCUCGUCACUCAGCGGGGCAUCUCUGAGAGAAAGGCC | 0.22
UACGUAGGUGGUUCUCCCCUGAUAGUGCUAAGGGGGCCUGGAAGUUUGGACUGGGCAGAGCUCAACACAGCGUGGCAAGGUGGCUGUGGCUAGACUGCCUCUCUGGAUUCCUCGUCACUCAGCAGGGCACCUCUGAGAGAAAUGCC | 0
UACGUAGGUGGUUCUCCCCUGAUAGUGCUAAGGGGGCCUGGAAGUUUGGACUGGGCAGAGCUCAACACAGCGUGGCAAGGUGGCUGUGGUUAGACUGCCUCUCUGGAUUCCUCGUCACUCAGCAGGGCAUCUCUGAGAGAAAUGCC | 0.07
UACGUAGGUGGUUCUCCCCUGAUAGUGCUAAGGGGGCCUGGAAGUUUGGACUGGGCAGAGCUCAACACGGCGUAGCAAAGUGGCUGUGGCUAGACUGCCUCCCUGGAUUCCUCGUCACUCAGCAGGGCAUCUCUGAGAGAAAUGCC | 0.75
UACGUAGGUGGUUCUCCCCUGAUAGUGCUAAGGGGGCCUGGAAGUUUGGACUGGGCAGAGCUCAACACAGCGUGGCUAAGCGGCUGUGGCUAGACUGCCUCUCUGGAUUCCUCGUCACUCAGCAGGGCAUCUCUGAGUGAAAUGCC | 0.43
UACGUAGGUGGUUCUCCCCUGAUAGUGCUAAGGGGGCCUGGAAGUUUGGACUGGGCAGAGCUCAACACAGCGUGGCAGAGUGGCUGUGGCUAGACUGCCUCACUGGAUUCCUCGUCACUCAGCAGGGCAUCUCUGAGAGAAAUGCC | 1.46
UACGUAGGUGGUUCUCCCCUGAUAGUGCUAAGGGGGCCUGGAAGUUUGGACUGGGCAGAGCUCAACACAGCGUGGCAAAGUGGCUGUGGCUAGGCUGCCUUUCUGGAUUCCUCGUCACUCAGCAGGGCAUCUCUGAGAGAAAUGCC | 0.45
UACGUAGGUGGUUCUCCCCUGAUAGUGCUAAGGGGGCCUGGAAGUUUGGACUGGGCAGAGCUCAACACAGCGUGGCGAAGUGGCCGUGGCUAGACUGCCUCUCUGGAUUCCUCGUCACUCAGCAGGGCAUCCCUGAGAGAAAUGCC | 0.31
UACGUAGGUGGUUCUCCCCUGAUAGUGCUAAGGGGGCCUGGAAGUUUGGACUGGGCAGAGCUCAACUCAGCGUGGCAAAGUGGCUGUGGCUAGACUGCCUCUCUGGAUUCCUCGUCACUCAGCAGGGCAUCUCUGGGAGAAAUGCC | 0.16

Variant | self-cleavage
UACGUAGGUGGUUCUCCCCUGAUAGUGCUAAGGGGGCCUGGAAGUUUGGACUGGGCAGAGCUCAACACAGCGUGGCAUAGUGGCUGUGGCUAGACUGCCUCUCUGGAUUCCUCGUCACUCAGCAGGGCAUCACUGAGAGAAAUGCC | 1.23
UACGUAGGUGGUUCUCCCCUGAUAGUGCUAAGGGGGCCUGGAAGUUUGGACUGGGCAGAGCUCAACACAGCGUGGCUAAGUGGCUGUGGCUAGACUGCCUCUCUGGAUUCCUCGUCACUCAGCAGGGCAUCUCUGGGAGAAAUGCU | 1.06
UACGUAGGUGGUUCUCCCCUGAUAGUGCUAAGGGGGCCUGGAAGUUUGGACUGGGCAGAGCUCAACACAGCGUGGCAAAGUGGCUGUGGCUAGGCUGCCUCUCUGGAUUCCUCGUUACUCAGCAGGGCAUCUCUGAGAGAAAUGCC | 0.13
UACGUAGGUGGUUCUCCCCUGAUAGUGCUAAGGGGGCCUGGAAGUUUGGACUGGGCAGAGCUCAACACAGCGUGGCAAGGUGGCUGUGGCUAGACUGCCUCUCUGGAUUCCUCGUCACUCAGCAAGGCAUCUCUGAGAGGAAUGCC | 1.55
UACGUAGGUGGUUCUCCCCUGAUAGUGCUAAGGGGGCCUGGAAGUUUGGACUGGGCAGAGCUCAACACAGCGUGGCAAGGUGGCUGUGGCUAGACUGCCUCUCUGGAUUCCUCGUCACUCAGCAGGGCUUCUCUGAGAGAAAUGCC | 0.93
UACGUAGGUGGUUCUCCCCUGAUAGUGCUAAGGGGGCCUGGAAGUUUGGACUGGGCAGAGCUCAACACAGCGUGGCAAAGUGGCUGUGGCUAGACUGCCUCUCUGGUUUCCUCGUCACUCAGCAGGGCAUCUCUGAGAGAAGUGCC | 0.8
UACGUAGGUGGUUCUCCCCUGAUAGUGCUAAGGGGGCCUGGAAGUUUGGACUGGGCAGAGCUCAACACAGCGUGGCAAGGUGGCUGUGGCUAGACUGCCUCUCUGGACUCCUCGUCACUCAGCAGGGCAUCUCUGAGAGAAAUGCC | 0.95
UACGUAGGUGGUUCUCCCCUGAUAGUGCUAAGGGGGCCUGGAAGUUUGGACUGGGCAGAGCUCAACACAGCGUGGCGAAGUGGCUGUGGCUAGACUGCCUCUCUGGAUUCCUCGUCACUCAGCAGGGCAUCUCCGAGAGAAAUGCC | 1.36
UACGUAGGUGGUUCUCCCCUGAUAGUGCUAAGGGGGCCUGGAAGUUUGGACUGGGCAGAGCUCAACACAGCGUGGCAAAGUGGCUGUGGCUAGACUGCCUCUCUGGAUUCCUCGUCGCUCAGCAGGGCAUCUCCGAGAGAAAUGCC | 1.56
UACGUAGGUGGUUCUCCCCUGAUAGUGCUAAGGGGGCCUGGAAGUUUGGACUGGGCAGAGCUCAACACAGCGUGGCAGAGUGGCUGUGGCUAGACUGCCUCUAUGGAUUCCUCGUCACUCAGCAGGGCAUCUCUGAGAGAAAUGCC | 0.99
UACGUAGGUGGUUCUCCCCUGAUAGUGCUAAGGGGGCCUGGAAGUUUGGACUGGGCAGAGCUCAGCACACCGUGGCAAAGUGGCUGUGGCUAGACUGCCUCUCUGGAUUCCUCGUCACUCAGCAGGGCAUCUCUGAGAGAAAUGCC | 0.12
UACGUAGGUGGUUCUCCCCUGAUAGUGCUAAGGGGGCCUGGAAGUUUGGACUGGGCAGAGCUCAACGCAGCGUGGCAAAGUGGCUGUGGCUAGACUGCCUCUCUGGAUUCCUCGUCUCUCAGCAGGGCAUCUCUGAGAGAAAUGCC | 0.33
UACGUAGGUGGUUCUCCCCUGAUAGUGCUAAGGGGGCCUGGAAGUUUGGACUGGGCAGAGCUCAACACAGCGUGGCAGGGUGGCUGUGGCUAGACUGCCUCUCUGGAUUCCUCGUCAUUCAGCAGGGCUUCUCUGAGAGAAAUGCC | 0.28
UACGUAGGUGGUUCUCCCCUGAUAGUGCUAAGGGGGCCUGGAAGUUUGGACUGGGCAGAGCUCAACACAGCGUGGCAAAGUGGCUGUGGCUAGUCUGCCUCUCUGGAUUCCUCGUCACUCAGCAGGGCAUCUCUGAGAGAGAUGCC | 0.47
UACGUAGGUGGUUCUCCCCUGAUAGUGCUAAGGGGGCCUGGAAGUUUGGACUGGGCAGAGCUCAACACAGCGUGGCAAGGUGGCUGUGGCUAGGCUGCCUCUCUGGAUUCCUCGUCACUCAGCAGGGCAUCUCUGAGAGAAAUGCC | 0.46
UACGUAGGUGGUUCUCCCCUGAUAGUGCUAAGGGGGCCUGGAAGUUUGGACUGGGCAGAGCUCAACACAGCGUGGCAAAGUGGCUGUGGCUAGACUGCCUCUCUGGAUUCCUCGUCACUCUGCAGGGCAUCUCUGAGAGAAGUGCC | 0.97
UACGUAGGUGGUUCUCCCCUGAUAGUGCUAAGGGGGCCUGGAAGUUUGGACUGGGCAGAGCUCAACACAGCGUGGCGAAGUGGCUGUGGCUAGACUGCCUCUCUGGAUUCCUCGUCACUCAGCAGGGCAUCUCUGAGAGGGAUGCC | 0.97
UACGUAGGUGGUUCUCCCCUGAUAGUGCUAAGGGGGCCUGGAAGUUUGGACUGGGCAGAGCUCAGCACAGCGUGGCAAAGUGGCUGCGGCUAGACUGCCUCUCUGGAUUCCUCGUCACUCAGCAGGGCAUCUCUGAGAGAAAUGCC | 0.3
UACGUAGGUGGUUCUCCCCUGAUAGUGCUAAGGGGGCCUGGAAGUUUGGACUGGGCAGAGCUCAACGCAGCGUGGCAAAGUGGCUGUGGCUAGACUGCCUCUCUGGAUUCCUCGACACUCAGCAGGGCAUCCUUGAGAGAAAUGCC | 0.43
